# Results: the supplement of paper PMC11417369
# The list shows a part of the results.
# Test system: PfHDP1 homeodomain (GST-tagged)
# Experiment: gcPBM binding intensity (ln(normalized median fluorescence intensity)); higher = stronger DNA binding
# Outline: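 Binding intensity is defined as the maximum Masliner-normalised natural-log median intensity across replicate spots for either probe orientation. It was measured on an Agilent 4 × 180k array of primer-extended double-stranded 36-bp intergenic genomic probes and negative controls, to which GST-tagged P. falciparum DNA-binding domains made in E. coli were applied for 1 h in 1× PBS with 1% milk, 0.2 mg/ml BSA, 0.5% salmon testes DNA and 0.03% Triton X-100. Detection was by Alexa488 anti-GST antibody and scanning at 488 nm.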
row,Sequence,gcPBM binding intensity (ln)
1,TGTATACACATATGTACACACATATAGATGTATATG [CACACA_site7447],7.26
2,ATAATGTATATTATTGCACACATATATAAAATTATG [CACACA_site8280],10.5
3,TTTTATAAAAACAAAAACAAAGGCACTTTCTAAAGA [XGTACX_negctrl_site130],6.68
4,AATATAAATATAAATATAAATATATATATATATATA [TGCATGCA_negctrl_site603],9.17
5,TAAATAAATACATACACACACATACCTATATTTATA [CACACA_site7466],6.65
6,TTTTTTTAATAAATTTATAACAATATGATAGGTGAC [CACACA_negctrl_site1783],7.05
7,TGAATCAATTGTTGCTGTACATAAGGTATACAATAA [XGTACX_site5127],6.45
8,AGTTAAATGAATCAATACATAAATATGTATATATAT [TGCATGCA_negctrl_site539],6.49
9,TATTTGGGTATTTTTACACACATTAATATATATATA [CACACA_site9114],8.35
10,AAAGATAATAATATGCGTACATAAAAATATATGATA [XGTACX_site6884],6.35
11,ATAATGGAAAAAAAATATAATAATACGAAATAGGAA [TGCATGCA_negctrl_site64],6.83
12,AAGAATTATAGAAACACACATACATACAGACATACA [CACACA_site1943],6.7
13,TAATTACCATATGGTACACACATATATATCTGTATA [CACACA_site5849],6.72
14,AAGAAGAGTTATTGTAGTACATTTTTAAATGTAATA [XGTACX_site7664],6.22
15,AATAATATCTGAAAATGTACATTTTATTATAAACAT [XGTACX_site8441],6.65
16,TCATTATTATATAATTGTACATAATAATTATATCCA [XGTACX_site1801],6.24
17,AATATAATATATATTAGTACATATATATATATATAT [XGTACX_site870],9.29
18,CCTCATATTATAGACACACACAAAAAAAATAAAAAA [CACACA_site180],6.59
19,ATGTATGTGTATATATGTACATAATATATATCTTTT [XGTACX_site8666],6.6

row,Sequence,gcPBM binding intensity (ln)
1,ATGCAAACTAAAAGACGTACAGAAAAGTATCATACT [XGTACX_site8766],6.23
2,TGATTATTTTATATTTGTACACATATCATATAAAAA [XGTACX_site5868],6.61
3,ACATAATATTGAAGAAGTACAAATTTTATTTATTAT [XGTACX_site4113],6.25
4,ACGTTTTTGAGTAGTACACACACAATAAGGATGGAT [CACACA_site9044],7.11
5,ATAATAATATAAAAATGTACATATATTTATAATTGT [XGTACX_site3429],6.25
6,TCTTTGTATATATGTTCATTTGTAATATATATTCAT [TGCATGCA_negctrl_site467],6.48
7,TATTTGTGAAGAAATTGTACTCATATCTACATTTAT [XGTACX_site2245],6.09
8,AGTACATTATAGAATACACACCTATACATTTATATA [CACACA_site6391],6.46
9,ATTTTATTTTTTCACACACACATATATATATATATA [CACACA_site3334],9.41
10,CCCAGGAATATAAAATGTACATAAAAAATACAAATT [XGTACX_site1708],6.88
11,TTTTTTTTTTTTGGATGTACTTAATGAAAATGTTAC [XGTACX_site8980],6.38
12,TAAGCACAAGCACAAGCACACATTTATATATATATA [CACACA_site883],8.94
13,TTATCATTTTTGGAATGTACTTACATTAAATATTTA [XGTACX_site4034],6.37
14,TATATGCAAAATGTCACACATGTGATAAATACATAT [CACACA_site4302],7.53
15,GTTGAAATAAAATTAGTGCATATATAAATATATATA,8.28
16,CTCACAATACTTACATGTACATATTATATATATAAA [XGTACX_site1880],7.23
17,AACTAATAGTATATTACATGCAAAAGTAAAAGTAAA [TGCATGCA_site411],7.08
18,TCATTCTTGTGTTTATGTACACATATTTATATTGTA [XGTACX_site710],6.45
19,ACTGAAAAAAGAAATACACACATTCTGGATCAGATA [CACACA_site7760],6.39

row,Sequence,gcPBM binding intensity (ln)
1,ATTATTATGTATTGCCGTACACATATTATCACAGAA [XGTACX_site3740],6.73
2,TATAAATAAACATTTACACACTCTTATAATAAATAT [CACACA_site1679],6.48
3,TATTATAATTAATATACACACGCTTATATATATATA [CACACA_site75],8.89
4,TCTTCATATATAATTGTACACACAAAAACGACATTG [CACACA_site8645],6.96
5,ACATGTACAGAAATTTATATATATATATATATATAT [CACACA_negctrl_site1584],9.5
6,GGAACCATCCAAAAAAAAAAAAAAAATAATAATAAT [CACACA_negctrl_site383],6.17
7,GTATTTTTTTTCTTTTGTACATATATATAAAGAATA [XGTACX_site4569],6.98
8,TATTATATATATAAATGTACATATTATTTTTCTTTT [XGTACX_site8670],6.63
9,AAGAATTTTCGATTTGCACACATTTGTAAAATAAAA [CACACA_site2354],9.98
10,TTTAATCAACAAAATCTACACACTAATATGAAATAT [CACACA_site9250],6.4
11,ATACACGTTTTACAATGTACAGAAAGTATACATAAT [XGTACX_site4585],6.44
12,TATAATATGTTTGATGGTACACGTAAACACCTTGCA [XGTACX_site1643],6.33
13,ATATACTTATATATTGCACACATCTAATATTTTGAA [CACACA_site3165],10.5
14,ATAACTAAATTATATTGTACAAAATAATTATATATT [XGTACX_site1188],6.46
15,TTTTAAAATAAAAAAATAAAAAAAGGGGAAAAAAAA [CACACA_negctrl_site847],5.91
16,CATATCAAAAAAAAATGTACACGTATATACAATACA [XGTACX_site2660],6.34
17,GTATTATAAAAAGGAAGTACATATATACATATTATA [XGTACX_site1271],6.31
18,ATATGAACATTAAAAAAGTAAGGTATTCTCCCCTCT [CACACA_negctrl_site1299],6.41
